Laboratory results: PubChem BioAssay AID485294 (National Center for Advancing Translational Sciences (NCATS), 2010)
Screen size: about 370,000 compounds; about 150 (0.041%) were called active. The shares of active, inactive and inconclusive entries below differ from those in the screen. The call rests on the fitted dose curve; in most records, active means well fitted inhibition curve with a large enough effect; inconclusive means small, poorly fitted or top-dose-only effect; inactive means flat fitted curve, though single readings scatter. No potency is given beside an inconclusive call; the fits are too rough.

What follows are compounds tested against Beta-lactamase (Escherichia coli (strain K12)) (UniProt P00811) (assay: qHTS Inhibitors of AmpC Beta-Lactamase (assay with detergent)). Conditions: AmpC hydrolysis of nitrocefin, absorbance 480 nm, 0.01% Triton; series mostly up to 114 µM.
In short: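 20 mM phosphate pH 7.0 + 0.01% (detergent screen) or 0.0001% Triton X-100; 5.3 nM AmpC reagent; cpd preinc 15 min RT; nitrocefin (800 uM stock) to start; A480 q20 s × 4 min; Activity was normalised to no-enzyme and no-compound control wells.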
Further: nearly all actives have a fitted effect of over 25% in size.
Potency means the concentration at half of the fitted maximal effect; tags describe the fitted curve by direction and shape.

UniProt P00811, sequence (P00811 whole entry, looked up): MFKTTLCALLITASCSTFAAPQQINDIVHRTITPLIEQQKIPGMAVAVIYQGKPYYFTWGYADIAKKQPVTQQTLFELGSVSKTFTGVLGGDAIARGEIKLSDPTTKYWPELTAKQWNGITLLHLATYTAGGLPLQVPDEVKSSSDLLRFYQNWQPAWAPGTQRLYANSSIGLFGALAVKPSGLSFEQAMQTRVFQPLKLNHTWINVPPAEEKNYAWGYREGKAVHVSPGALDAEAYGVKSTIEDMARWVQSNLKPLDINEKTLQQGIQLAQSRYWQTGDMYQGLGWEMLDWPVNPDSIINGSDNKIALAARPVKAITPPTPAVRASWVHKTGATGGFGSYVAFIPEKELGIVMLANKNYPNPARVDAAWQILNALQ

SMILES | Potency
COc1cc(C(=O)Nc2cccc(S(=O)(=O)NCc3ccco3)c2)cc(OC)c1OC | inconclusive [inhibitor, full curve]
CCOc1ccc2[nH]c(=O)c(C(c3nnnn3CC3CCCO3)N3CCc4ccccc4C3)cc2c1 (stereo not drawn) | inactive
O=C(Nc1ccc(N2CCN(c3ncccc3C(F)(F)F)CC2)nc1)c1cccs1 | inactive
CCOc1nnnc2c1sc1nc(N3CCOCC3)c3c(c12)CCCC3 | inconclusive [inhibitor, partial curve, poor fit]
CC(C)Oc1ccc(CNC(=O)CN2C(=O)CCn3nc(-c4cn(C)c5ccccc45)cc32)cc1 | inactive
CCCSc1nnc(Nc2ccccc2C)s1 | inactive
COC(=O)c1ccc(NC(=O)Nc2ccccc2C)cc1 | inconclusive [inhibitor, partial curve]
COc1cc(NC(=O)N[C@H](C(=O)O)C(C)C)cc(OC)c1 | inconclusive [inhibitor, partial curve]
CC(C)c1ccc(N=Nc2c(O)[nH]c(=O)[nH]c2=O)cc1 | inactive
O=C(NCc1ccco1)C1CC(c2cccc([N+](=O)[O-])c2)=NO1 (stereo not drawn) | inconclusive [inhibitor, single point]
O=C(N/N=C/c1ccc(OC(=O)c2cccs2)cc1)c1ccc(F)cc1 | inconclusive [inhibitor, single point]
CC(=O)Nc1ccc(-c2cc(C(=O)O)c3ccc(C)cc3n2)cc1 | inconclusive [inhibitor, single point]
CCCc1cc(=O)oc2c(C)c(OCC(=O)c3ccc(N4CCCC4)cc3)ccc12 | inconclusive [inhibitor, full curve, poor fit]
COc1ccc(C2CC(C(F)(F)F)n3nc(C(=O)NCc4c(C)nn(C)c4C)c(Cl)c3N2)cc1 (stereo not drawn) | inconclusive [inhibitor, full curve, poor fit]
O=[N+]([O-])c1ccc(/C=C/C2=NN(c3ccccc3)C(c3ccco3)C2)cc1 (stereo not drawn) | inactive
COc1cc(C2C3=C(CC(C)(C)CC3=O)N(C)C(=O)N2C)cc(OC)c1OC (stereo not drawn) | inconclusive [inhibitor, full curve, poor fit]
O=C(N/N=C/c1ccco1)c1cccc([N+](=O)[O-])c1 | inconclusive [inhibitor, full curve]
COc1ccc(/C(C)=N/OCC(=O)N=Nc2c(O)[nH]c3ccc(Br)cc23)cc1 | inconclusive [inhibitor, partial curve, poor fit]
CC1CCC(NCCNC(=O)c2ccco2)CC1 (stereo not drawn) | inconclusive [inhibitor, full curve, poor fit]
CCN(CC)CCCN(C(=O)c1ccc(Br)cc1)c1nc(-c2ccc(OC)cc2)cs1 | inconclusive [inhibitor, full curve]
Cc1nc(C(=O)N2CCc3c([nH]c4ccccc34)C2c2cc(F)ccc2F)cs1 (stereo not drawn) | inactive
O=C(O)c1[nH]c2ccccc2c1C(c1c(F)cccc1Cl)c1c(C(=O)O)[nH]c2ccccc12 | inconclusive [inhibitor, full curve, poor fit]
Cc1c(OC(C)C(=O)N2C[C@H]3C[C@@H](C2)c2cccc(=O)n2C3)ccc2c3c(c(=O)oc12)CCCC3 (stereo partly drawn) | inconclusive [inhibitor, full curve, poor fit]

SMILES | Potency
N#C/C(=C\c1ccccc1)C(=O)OCC(=O)N1CCCC1 | inconclusive [inhibitor, partial curve, poor fit]
Cc1cc(C)n(-c2ccc(NC(=O)C3CCN(Cc4cc(C)c(C)o4)CC3)cc2)n1 | inactive
CCCn1c(SCc2nc(N)nc(N3CCCCC3)n2)nc2c1c(=O)n(C)c(=O)n2C | inactive
O=C(Nc1cccc(Cl)c1Cl)C1CCCO1 (stereo not drawn) | inactive
Cc1ccc(NC(=O)/C(=C\c2cccc([N+](=O)[O-])c2)NC(=O)c2cccs2)cc1 | inactive
CCN(CC)S(=O)(=O)c1cccc(NC(=O)COC(=O)C2COc3ccccc3O2)c1 (stereo not drawn) | inconclusive [inhibitor, partial curve, poor fit]
CCOC(=O)Cc1csc(NC(=O)CCC(=O)O)n1 | inactive
CC1CCC/C(=N\Nc2ccc(Cl)c(C(=O)O)c2)C1 (stereo not drawn) | inconclusive [inhibitor, full curve, poor fit]
Cc1ccccc1OCC(=O)Nc1cc(Cl)ccc1Oc1ccccc1 | inconclusive [inhibitor, partial curve, poor fit]
NS(=O)(=O)c1ccc(CCNC(=O)CSc2ccsc2[N+](=O)[O-])cc1 | inconclusive [inhibitor, full curve, poor fit]
O=C1N[C@@H](Cc2ccccc2)C(=O)N2CCC[C@@H]12 | inconclusive [inhibitor, partial curve, poor fit]
O=C(Nc1nccs1)c1cc(-c2ccncc2)nc2ccccc12 | inactive
COc1cccc(CNC(=O)c2ccc(-c3nc(CS(=O)c4ccccc4)c(C)o3)cc2)c1 (stereo not drawn) | inactive
O=[N+]([O-])C1C(c2ccccc2)=NOC1c1ccccc1O (stereo not drawn) | inconclusive [inhibitor, full curve, poor fit]
c1ccc(SCCOCCN2CCOCC2)cc1 | inactive
COc1cc(C(=O)N/N=C/c2cn(Cc3cccc(F)c3)c3ccccc23)ccc1O | inconclusive [inhibitor, full curve, poor fit]
Cc1ccc(C)c(N2CCN(c3nc4ccccc4c(=O)n3-c3ccc(Cl)cc3)CC2)c1 | inactive
Cc1nc2ccc(C(=O)O)cc2[nH]1 | inconclusive [inhibitor, full curve, poor fit]
O=C(c1ccc(F)cc1)C1CCN(C(=O)c2ccccc2)CC1 | inconclusive [inhibitor, full curve, poor fit]
O=S(=O)(Cc1cc(Cl)nc(-c2ccncc2)n1)c1ccccc1 | inactive
CC(Sc1nnc(C2CC2)n1C1CC1)C(=O)NCc1cccs1 (stereo not drawn) | inconclusive [inhibitor, partial curve]
O=C1CCCN1C(=O)CSc1nnnn1-c1ccccc1 | inconclusive [inhibitor, full curve, poor fit]
CCc1ccccc1NC(=O)N1C2CCCC1CC(NC(=O)C(C)(C)C)C2 (stereo not drawn) | inconclusive [inhibitor, full curve, poor fit]

SMILES | Potency
Cc1ccc(C(=O)CN2C(=O)NC3(CCc4ccccc43)C2=O)c(C)c1 (stereo not drawn) | inconclusive [inhibitor, full curve]
CCc1c(C(=O)N/N=C/c2cn[nH]c2-c2ccc(F)cc2)csc1C | inconclusive [inhibitor, partial curve, poor fit]
COc1ccc(CN2C(=O)CN=C2Nc2cc(C)ccc2C)cc1 | inconclusive [inhibitor, partial curve, poor fit]
Cc1cccc(C(=S)N2CCOCC2)n1 | inconclusive [inhibitor, full curve]
CCCNC(=O)COC(=O)/C=C/c1ccc(C)o1 | inconclusive [inhibitor, full curve]
CCC(=O)c1ccc(OCc2ccc(C(=O)OC)cc2)c(OC)c1 | inconclusive [inhibitor, full curve]
COc1cccc(OC)c1C(=O)N1CCN(Cc2ccccc2C(F)(F)F)CC1 | inconclusive [inhibitor, full curve, poor fit]
CC(C)c1ccccc1NC(=S)NC1CCN(Cc2ccccc2)CC1 | inactive
O=C(CN1C(=O)NC2(CCCC2)C1=O)N1CCN(S(=O)(=O)c2ccccc2[N+](=O)[O-])CC1 | inconclusive [inhibitor, full curve, poor fit]
CCOC(=O)N1CCN(c2cc(=O)n(Cc3ccc(F)cc3)c(=O)[nH]2)CC1 | inconclusive [inhibitor, full curve, poor fit]
O=C(Nc1cccc([N+](=O)[O-])c1)N1CCc2ccccc2C1 | inconclusive [inhibitor, full curve, poor fit]
COc1ccccc1-n1c(-c2ccco2)n[nH]c1=S | inactive
Cc1cc2c(cc1S(=O)(=O)CCC(=O)NC1CCCCC1C)OCC(=O)N2 (stereo not drawn) | inconclusive [inhibitor, full curve, poor fit]
CCc1ccc(CNC(=O)Cn2ccc3cc(S(=O)(=O)N4CCCCCC4)ccc32)cc1 | inactive
O=C(N/N=C/c1ccccc1)c1cc(=O)[nH]c2ccccc12 | inconclusive [inhibitor, partial curve]
O=C(C1CCCN(S(=O)(=O)Cc2ccccc2)C1)N1CCC(Cc2ccccc2)CC1 (stereo not drawn) | inactive
CC(=O)N1c2ccccc2S(=O)(=O)c2ccccc21 | inactive
Cc1ccc(NC(=O)C2CCCCC2)cc1C | inconclusive [inhibitor, full curve, poor fit]
CCOC(=O)c1cc2cc3ccccc3cc2oc1=O | inconclusive [inhibitor, single point]
O=C1CC(C(=O)N2CCC(N3CCC(C(=O)NC4CC4)CC3)CC2)c2ccccc21 (stereo not drawn) | inactive
Cc1c(C(=O)N2CCCC2)oc2c1-c1[nH]ncc1CC2 | inconclusive [inhibitor, full curve]
CCCc1cc(=O)oc2c(C)c(OC(C)C(=O)NCc3ccccn3)ccc12 (stereo not drawn) | inconclusive [inhibitor, full curve, poor fit]
